Some of the results follow. Read counts after selection give these values, which scatter widely.
The substances below were run on SARS-CoV-2 3CLpro (nsp5) (assay: substrate phage enrichment score (protease-eluted vs HEPES control, +1 offset) (ratio); higher = better cleaved substrate). Settings: selection round: 4; protease elution time: 15 min.
Protocol: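 Random heptapeptide substrate phage display (M13 pIII fusion, heptapeptide between an N-terminal biotinylated AviTag GLNDIFEAQKIEWHE and pIII; phages immobilised on streptavidin) eluted by cleavage with 50 nM protease in 20 mM HEPES at 37 °C. Selected phages were NGS sequenced, and the enrichment score is (reads in protease sample + 1)/(reads in HEPES blank-selection control + 1).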

| Substance | substrate phage enrichment score |
| --- | --- |
| SETLQIR | > 31 |
| LHESSQG | > 22 |
| RTWDANT | 2 |
| PTGINRW | 0.556 |
| AVSKYQY | 1.7 |
| KCKCTLQ | > 118 |
| HGSAQLQ | > 21 |
| IKYDLKQ | 1.63 |
| SRTLTGN | 1.6 |
| ERLNNCR | 0.0637 |
| SPVKVGG | > 33 |
| QENVDTH | 0.0638 |
| KQLDSCR | > 246 |
| AAAKLQS | 110 |
| RNFQGGS | 1.7 |
| NTRGLTG | 27 |
| CHHEQTR | 0.923 |
| AHCTRHS | 5.2 |
| SPLIWDH | > 30 |
| TVLQAHG | 198 |
| VQLSHPK | 0.8 |
| ASRPGIF | 5.29 |
| TRRTTKC | 1.9 |

| Substance | substrate phage enrichment score |
| --- | --- |
| GAAAHHQ | 1.08 |
| HETDSLI | > 22 |
| LKSSDLQ | 28 |
| TAGLPST | 1.65 |
| TEQAERL | 2.04 |
| GCRLQSG | > 162 |
| PHVSVMK | 2.43 |
| RHPYNAL | > 47 |
| PWGTNCQ | > 30 |
| QRQSHSI | 0.68 |
| TPPVRLQ | 8.05 |
| PQDLTGR | 3 |
| VPTTDRL | 3 |
| KQRTWQH | > 29 |
| PTTPFNN | > 46 |
| NYPGLMW | > 21 |
| MSPRSNF | 1.75 |
| RPSCRDR | 4.91 |
| RNHVTLD | 10 |
| CLQPIKG | 6.23 |
| ECDVQWY | 1.71 |
| KTRRCFQ | 13.5 |
| QTRLQCS | > 32 |

| Substance | substrate phage enrichment score |
| --- | --- |
| PDGFKAE | > 28 |
| STVWEAR | 0.353 |
| ETHHPHH | 0.882 |
| VQDNTAA | 0.0186 |
| RKNDGVR | > 24 |
| AAPCTTR | 2.67 |
| HSQAVTS | 0.5 |
| YGAAHHH | 0.412 |
| AKLQSNH | > 27 |
| PRRPTIH | 1.2 |
| YARLPAT | > 21 |
| SAPRWGP | 1.44 |
| KGSLNDR | 3 |
| WDTGPTD | 0.294 |
| TPSALKS | 0.938 |
| TPTPGCV | 0.219 |
| SGGVFFR | > 24 |
| CNECAEW | 1.3 |
| YRRGPAL | 0.583 |
| NMATTLQ | > 37 |
| AYAPIHT | > 28 |
| SGGRLPC | 0.0938 |
| SPLGSFQ | > 33 |

| Substance | substrate phage enrichment score |
| --- | --- |
| SELQSGA | 5.07 |
| ASSRPAN | > 75 |
| TRYNPAL | 11.8 |
| ESTLQGN | > 37 |
| VPKTKLQ | > 132 |
| AEDNPYR | 1.36 |
| ESSRVVS | 1.51 |
| GAAHHHH | 0.986 |
| RPPSELG | 0.737 |
| TGNVSTE | > 44 |
| YSQGWLQ | 18.8 |
| GDNEHWR | > 24 |
| LCRPKTT | > 23 |
| CLNQGGS | > 36 |
| WEQSSEK | > 21 |
| RAPVLQR | 5.12 |
| RKPTLLH | > 39 |
| RCVPKLQ | 17.5 |
| PNMPASR | 4.41 |
| ETFRSQP | > 22 |
| RERKEPT | 0.5 |
| NHARMTD | 3.67 |
| KGEACSD | > 22 |

| Substance | substrate phage enrichment score |
| --- | --- |
| THGRPMR | 1.69 |
| SCDKLGP | 4.5 |
| GCSAAAH | 0.941 |
| FPGGSAA | 1.09 |
| LPCPYTR | > 27 |
| GSLERRG | 10 |
| HRSQQSS | 0.36 |
| RLESVSP | > 37 |
| SPECLRD | > 121 |
| SSAAAHH | 0.514 |
| LTLERTG | 1.69 |
| NAAAQHH | 1.3 |
| KWAPHRE | > 23 |
| KCRVSSR | 20 |
| TPYRLKH | > 22 |
| LGKLSQK | 1.79 |
| ARSTLQS | > 502 |
| EIQSGPG | 3.46 |
| RHECRAT | > 21 |
| DLYFQGG | 1.35 |
| APSILKQ | > 51 |
| TDEPPRS | 0.231 |
| VNAAAHH | 3.86 |

| Substance | substrate phage enrichment score |
| --- | --- |
| GHDEILQ | 1.15 |
| EKGSSEA | 3.17 |
| RDIHPVQ | 1.78 |
| TCSSPGP | 1.69 |
| VSHAPSS | 9.33 |
| VMGVIRD | 4.12 |
| GPQKHSV | 6.67 |
| HVRATLQ | > 196 |
| RAKNTES | 18.3 |
| RSQSMPG | 5.43 |
| WTESQRT | > 39 |
| AALNTGR | > 27 |
| SAAAHKH | 1.02 |
| PRLEKLP | > 22 |
| AVISWPG | 1.48 |
| GQHPSFG | > 25 |
| SKDVCVQ | 1.36 |
| AGLGSKC | > 26 |
| MQGTLRA | 5.25 |
| FYCPLLW | 2.11 |
| RRDEQLP | 51 |
| AYFQGGS | 5.08 |
| TKSPFQG | 2.75 |

| Substance | substrate phage enrichment score |
| --- | --- |
| RRNVGND | 0.093 |
| LNSEFHR | 2.42 |
| PLSAQLQ | > 186 |
| GSVPSLQ | 15.5 |
| AMTACGK | > 374 |
| EKPQIHR | > 38 |
| LIKPTMQ | > 34 |
| MRHIERA | 5.2 |
| SCPLGSR | 1.93 |
| VQRLRVG | 2.67 |
| EQNFQGG | > 41 |
| HEPRSPC | > 35 |
| RVQLQAD | > 34 |
| LSLSLPS | 0.353 |
| NPHIEPR | 5.83 |
| KRSTTLI | > 27 |
| SGRTSSS | 0.467 |
| AESRMDL | 2.14 |
| NGHVLRS | 0.647 |
| TAVNLGR | 0.0625 |
| APTSSHR | > 35 |
| SAAHHHH | 0.91 |
| KSTQEAH | 0.217 |

| Substance | substrate phage enrichment score |
| --- | --- |
| EGSRAPC | 1.31 |
| WQKNQIQ | > 21 |
| NNQTPDC | > 22 |
| RVPLSRN | 2.89 |
| RAAAQHH | 1.18 |
| VQSGRYP | 2.4 |
| APERAHR | 0.143 |
| TVNDFMQ | > 29 |
| PRGVNLQ | > 32 |
| SAAAQQK | 1.43 |
| RSERLRE | 3.6 |
| KDWLLKG | 1.43 |
| RLRLFCR | 14 |
| EENGTLQ | 8 |
| SCWKEFQ | 1.67 |
| KWSGPRL | > 65 |
| GCPTSKA | > 27 |
| GKSQNPR | 7.88 |
| GCSCTDR | > 37 |
| ERHTPAL | 1.57 |
| SHVNYTD | 0.636 |
| PLAAQPA | 3.6 |

Reference: the supplement of paper PMC10185492
